Experimental data as given in PubChem BioAssay AID1468 (National Center for Advancing Translational Sciences (NCATS), 2008).
Among all 280,000 compounds or so, about 1,100 (0.39%) were called active. The inconclusive results got no clear call from the source; some entries with a clear call stand among them for comparison. Calls come from the whole dose curve; as a rule, active = well fitted inhibition curve with a large enough effect; inconclusive = small, poorly fitted or top-dose-only effect, or effect the other way; inactive = flat fitted curve, though single readings scatter. No potency is given beside an inconclusive call; the fits are too rough.
Note: nearly all actives have a fitted effect of over 55% in size.
Potency is the fitted concentration of half-maximal effect; tags give direction and shape of the fitted curve.

Each compound was assayed against Microtubule-associated protein tau (Homo sapiens) (UniProt P10636) (assay: qHTS for Inhibitors of Tau Fibril Formation, Fluorescence Polarization). Settings: K18 P301L tau heparin fibrillization, Alexa594 FP, 6 h; series mostly up to 57.7 µM.
UniProt P10636, sequence (P10636 whole entry, looked up): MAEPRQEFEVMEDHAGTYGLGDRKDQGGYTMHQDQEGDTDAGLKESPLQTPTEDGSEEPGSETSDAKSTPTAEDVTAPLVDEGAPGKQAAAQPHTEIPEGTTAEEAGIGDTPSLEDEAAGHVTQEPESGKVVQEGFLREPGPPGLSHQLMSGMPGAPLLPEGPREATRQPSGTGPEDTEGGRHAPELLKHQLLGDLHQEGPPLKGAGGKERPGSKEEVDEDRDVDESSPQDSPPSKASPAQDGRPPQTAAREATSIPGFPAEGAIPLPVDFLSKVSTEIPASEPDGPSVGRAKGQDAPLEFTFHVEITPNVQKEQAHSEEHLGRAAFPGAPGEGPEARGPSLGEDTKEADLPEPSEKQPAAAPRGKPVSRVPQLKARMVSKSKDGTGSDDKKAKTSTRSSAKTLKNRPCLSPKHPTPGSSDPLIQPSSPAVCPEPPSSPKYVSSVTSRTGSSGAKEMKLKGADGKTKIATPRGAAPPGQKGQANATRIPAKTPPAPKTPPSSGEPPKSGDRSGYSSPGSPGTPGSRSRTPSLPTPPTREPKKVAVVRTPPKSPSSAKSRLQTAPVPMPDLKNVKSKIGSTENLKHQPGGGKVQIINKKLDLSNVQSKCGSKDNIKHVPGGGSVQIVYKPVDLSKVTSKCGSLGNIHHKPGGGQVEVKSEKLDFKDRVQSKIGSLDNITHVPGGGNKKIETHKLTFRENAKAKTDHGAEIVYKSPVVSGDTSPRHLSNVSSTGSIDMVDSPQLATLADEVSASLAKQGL
Outline: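 Quantitative HTS format: compounds meet 15 uM recombinant K18 P301L tau and Alexa 594-tau tracer in 100 mM sodium acetate pH 7; 20 uM heparin triggers fibrillization at 37 C over 6 hr; FP gives the signal.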
For `Cc1ccc(OCCNc2cc(N3CCN(CCO)CC3)ccc2[N+](=O)[O-])cc1C`, the Potency was “inactive”. `C=CCn1c(C)cc(C(=O)CSc2nc3ccccc3c(=O)[nH]2)c1C` was tested, and the Potency was “inactive”. `COc1ccc(-c2cc(C(F)(F)F)nc(NCc3cccs3)n2)cc1` was tested, and the Potency was inconclusive [inhibitor, partial curve, poor fit]. For `Cc1cccc2cc(/C=N/Nc3ccc(C(=O)O)cc3)c(Cl)nc12`, the Potency was inconclusive [activator, partial curve]. With `O=C(COC(=O)c1ccc([N+](=O)[O-])s1)Nc1ccc(Cl)cn1` the Potency was “inactive”. `Cc1c(C(=O)N2CCCC2)sc(NC(=O)c2ccc(Cl)cc2)c1C#N` was tested, and the Potency was inconclusive [activator, full curve, poor fit]. `CC(=O)NCCc1c[nH]c2ccc(O)cc12` was tested, and the Potency was inconclusive [inhibitor, partial curve]. With `CCn1cc(C(=O)NCc2ccco2)c(=O)c2cc(S(=O)(=O)N3CCC(C)CC3)ccc21` the Potency was inconclusive [inhibitor, partial curve, poor fit]. `Cc1nn(-c2ccccc2)c(C)c1/C=N\NS(=O)(=O)c1ccc(Cl)cc1` was tested, and the Potency was inconclusive [inhibitor, single point]. With `O=c1c2ccccc2c(/C=N/c2ncn[nH]2)c(O)n1Cc1ccccc1` the Potency was inconclusive [inhibitor, partial curve]. In the case of `O=C(Nc1cccnc1)c1cccs1`, the Potency is reported as “inactive”. In the case of `CN(C)CCNc1nc2sc3c(c2c(=O)n1CCc1ccccc1)CCCCC3`, the Potency is reported as inconclusive [activator, full curve, poor fit]. With `Cc1ccc(S(=O)(=O)c2nc(-c3ccco3)oc2SCC(=O)c2ccc(Cl)cc2)cc1` the Potency was inconclusive [inhibitor, partial curve]. `Cc1ccc(C(=O)O/N=C/c2c(N3CCOCC3)n(C)c3ccccc23)cc1` was tested, and the Potency was inconclusive [activator, partial curve]. For `Cc1ccc2c(CC(=O)O)coc2c1`, the Potency was inconclusive [inhibitor, single point]. `COc1cccc(/C=N/NC(=S)NC2CC3CCC2C3)c1OC` (stereo not given) was tested, and the Potency was inconclusive [inhibitor, partial curve]. For `COc1ccc(OCC(=O)Nc2ccc3c(c2)N(C)C(=O)c2ccccc2S3)cc1`, the Potency was “inactive”. In the case of `O=C(COC(=O)C1CSC2(c3ccc(F)cc3)CCC(=O)N12)NC(=O)NC1CCCC1` (stereo not given), the Potency is reported as “inactive”. In the case of `CC(C)CN(CC(C)C)c1nnc(NC(=O)Nc2cccc(C(F)(F)F)c2)s1`, the Potency is reported as inconclusive [activator, single point]. For `CN(C)c1ccc(N=Cc2nc(-c3ccccc3)oc2OC(=O)c2cccc(Br)c2)cc1`, the Potency was inconclusive [inhibitor, single point]. In the case of `FC(F)(F)c1cnc(NNC(=S)Nc2cccnc2)c(Cl)c1`, the Potency is reported as “inactive”. In the case of `Cc1cccc2sc(N(CCCN(C)C)C(=O)c3sc4ccccc4c3Cl)nc12`, the Potency is reported as “inactive”. For `COCCN(C)Cc1cn(-c2ccc(F)cc2F)nc1-c1ccccc1C`, the Potency was “inactive”. For `Nc1nc(Nc2cccc(F)c2)nc(NCc2ccco2)c1[N+](=O)[O-]`, the Potency was inconclusive [inhibitor, single point]. For `C=CCn1c(-c2ccc(OC)cc2)csc1=Nc1c(C)n(C)n(-c2ccccc2)c1=O`, the Potency was “inactive”. In the case of `Cc1cc(N2CCC(C(=O)NC3CCCCC3)CC2)nc(-c2ccccc2)n1`, the Potency is reported as “inactive”. For `CCCn1c(CNc2ccccc2O)nc2ccccc21`, the Potency was inconclusive [inhibitor, single point]. `O=C1NC(=Nc2ccccc2)/C(=C/c2ccco2)S1` was tested, and the Potency was “inactive”. `Cn1c(=O)c2c(-c3ccccc3)n3c(c2n(C)c1=O)C(c1cccc([N+](=O)[O-])c1)Nc1ccccc1-3` (stereo not given) was tested, and the Potency was inconclusive [inhibitor, partial curve]. In the case of `Cc1ccc(NC(=O)c2cnc(SCC(=O)N3CCCc4ccccc43)n(C)c2=O)cc1C`, the Potency is reported as inconclusive [inhibitor, single point]. `Cc1cccc2cc(CN(Cc3ccc(F)cc3)C(=O)N3CCOCC3)c3nnnn3c12` was tested, and the Potency was “inactive”. For `Cc1ccc(C(C#N)c2ccc3c(C(F)(F)F)cc(C(F)(F)F)nc3n2)cc1` (stereo not given), the Potency was “inactive”. For `O=C(CC1C(=O)N(Cc2ccccc2)C(=S)N1CCN1CCOCC1)Nc1ccc(F)cc1` (stereo not given), the Potency was inconclusive [inhibitor, single point]. With `COc1cccc(CNC(=O)Nc2ccc3c(c2)N(C)C(=O)c2ccccc2S3)c1` the Potency was “inactive”. In the case of `CCCOc1ccc(C2NC(=O)NC2=O)cc1` (stereo not given), the Potency is reported as inconclusive [inhibitor, partial curve]. In the case of `Cc1ccc(C(=O)COC(=O)C2CC(=O)N(c3nc(-c4ccccc4)cs3)C2)cc1C` (stereo not given), the Potency is reported as inconclusive [inhibitor, single point]. `CCc1ccc(NC(=O)c2sc3nc(C)cc(C)c3c2NC(=O)c2ccccc2)cc1` was tested, and the Potency was inconclusive [inhibitor, single point]. In the case of `COc1ccc(/C=C/C(=O)Nc2cccc(F)c2)cc1`, the Potency is reported as inconclusive [inhibitor, partial curve, poor fit]. In the case of `Cc1ccc(C)c(NC(=O)Cn2cc(S(=O)(=O)c3ccc(F)cc3)c(=O)c3cc(F)ccc32)c1`, the Potency is reported as inconclusive [inhibitor, partial curve]. For `N#C/C(=C\c1ccc(O)c(O)c1)C(N)=O`, the Potency was inconclusive [inhibitor, single point]. `CC1=NN(c2ccc(S(=O)(=O)O)cc2Cl)C(=O)C1` was tested, and the Potency was inconclusive [inhibitor, partial curve]. `Cc1ccc(C=Nc2ccc(N(C)C)cc2)o1` was tested, and the Potency was active: 25.1 µM. In the case of `Cc1c(Cc2ccc3c(c2)OCO3)sc(NC(=O)c2cccc3ccccc23)c1C(N)=O`, the Potency is reported as inconclusive [inhibitor, partial curve]. In the case of `Cc1ccc(NCc2ccncc2)c(Br)c1`, the Potency is reported as “inactive”. `CCCOC(=O)c1cccc(Nc2nc(C(=O)OCC)nc3ccccc23)c1` was tested, and the Potency was inconclusive [inhibitor, partial curve]. In the case of `CC(Oc1ccccc1F)C(=O)NCC1(N2CCOCC2)CCCCC1` (stereo not given), the Potency is reported as “inactive”. In the case of `COc1ccc(CCNC(=O)c2ccc(-c3ccc([N+](=O)[O-])cc3Cl)o2)cc1`, the Potency is reported as inconclusive [activator, single point]. In the case of `Cc1ccc(NC(=O)c2c(C)oc3ncnc(N4CCCCC4)c23)c(C)c1`, the Potency is reported as “inactive”. In the case of `Cc1cccc2sc(NC(=O)CSCc3ccccc3)nc12`, the Potency is reported as inconclusive [inhibitor, single point]. For `CCCN(C(=O)c1nn(-c2ccc(OC)c(Cl)c2)c(=O)c2c1c1ccccc1n2C)c1ccccc1F`, the Potency was inconclusive [inhibitor, partial curve]. For `Cn1c(=S)n(C)c2ccccc21`, the Potency was “inactive”. For `NS(=O)(=O)c1ccc(NC(=S)NC(=O)c2ccc(Br)o2)cc1`, the Potency was inconclusive [inhibitor, single point]. For `CC(C)c1ccc2oc(-c3cc(NC(=O)c4cccs4)ccc3Cl)nc2c1`, the Potency was active: 12.6 µM. With `O=C(N/N=C/c1coc2ccccc2c1=O)c1cc(O)cc(O)c1` the Potency was inconclusive [inhibitor, partial curve]. In the case of `COc1ccc(N/C=C\C(=O)c2ccc3c(c2)OCO3)cc1`, the Potency is reported as “inactive”. For `O=c1cc(Nc2ccc3c(c2)OCCO3)[nH]c(=O)n1C1CCCCC1`, the Potency was “inactive”. With `Cc1cc(C)c(C#N)c(SCC(=O)OC2CCCCC2)n1` the Potency was “inactive”. `CN(C)c1ccc(/C=C/C(=O)c2ccc(O)cc2)cc1[N+](=O)[O-]` was tested, and the Potency was inconclusive [inhibitor, partial curve]. In the case of `COCCCNC(=O)Cn1c(=O)n(CCCCCC(=O)NCc2ccc3c(c2)OCO3)c(=O)c2sccc21`, the Potency is reported as “inactive”. With `O=C1N=c2ccccc2=C1c1c(O)n(-c2cccc(F)c2)[nH]c1=O` the Potency was inconclusive [inhibitor, single point]. `Cc1cc(NC(=O)COC(=O)C2CCN(S(=O)(=O)c3cccc(Cl)c3Cl)CC2)no1` was tested, and the Potency was inconclusive [inhibitor, partial curve, poor fit]. For `O=C(CC(Nc1cccc(Cl)c1Cl)C(=O)OCC(=O)c1cccs1)c1ccccc1` (stereo not given), the Potency was inconclusive [inhibitor, full curve, poor fit]. `COc1ccc(NC(=O)c2sc3nc4c(cc3c2N)CN(C(C)C)CC4)c(OC)c1` was tested, and the Potency was inconclusive [inhibitor, single point]. For `Cc1ccc(N(CC(=O)N/N=C/c2ccc(OC3CSC3)cc2)S(=O)(=O)c2ccccc2)c(C)c1`, the Potency was inconclusive [inhibitor, partial curve]. For `COc1ccc(-n2c(C)cc(/C=N/Nc3nnc(C)n3N)c2C)cc1`, the Potency was inconclusive [inhibitor, single point]. For `COCCn1nnnc1C(c1cc2cc(C)ccc2[nH]c1=O)N1CCc2ccccc21` (stereo not given), the Potency was inconclusive [inhibitor, partial curve]. With `Fc1ccc(-c2csc3[n+]2CCS3)cc1` the Potency was “inactive”. For `Cc1cc(NC(=O)c2ccc3c(c2)N(Cc2cccc(Cl)c2)C(=O)c2ccccc2S3=O)ccc1Br` (stereo not given), the Potency was inconclusive [inhibitor, partial curve]. For `Brc1cc2c(cc1/C=N/Nc1nc3ccccc3s1)OCO2`, the Potency was “inactive”. For `Cn1c(CNC(=O)c2ccco2)nnc1SCC(=O)c1ccccc1`, the Potency was inconclusive [inhibitor, single point].
